For two molecules, binding results are on record in PMC3599065.

One assay has as its target T1, TAP-JIP3-LZ4A (mouse) (UniProt Q9ESN9).
T1 sequence: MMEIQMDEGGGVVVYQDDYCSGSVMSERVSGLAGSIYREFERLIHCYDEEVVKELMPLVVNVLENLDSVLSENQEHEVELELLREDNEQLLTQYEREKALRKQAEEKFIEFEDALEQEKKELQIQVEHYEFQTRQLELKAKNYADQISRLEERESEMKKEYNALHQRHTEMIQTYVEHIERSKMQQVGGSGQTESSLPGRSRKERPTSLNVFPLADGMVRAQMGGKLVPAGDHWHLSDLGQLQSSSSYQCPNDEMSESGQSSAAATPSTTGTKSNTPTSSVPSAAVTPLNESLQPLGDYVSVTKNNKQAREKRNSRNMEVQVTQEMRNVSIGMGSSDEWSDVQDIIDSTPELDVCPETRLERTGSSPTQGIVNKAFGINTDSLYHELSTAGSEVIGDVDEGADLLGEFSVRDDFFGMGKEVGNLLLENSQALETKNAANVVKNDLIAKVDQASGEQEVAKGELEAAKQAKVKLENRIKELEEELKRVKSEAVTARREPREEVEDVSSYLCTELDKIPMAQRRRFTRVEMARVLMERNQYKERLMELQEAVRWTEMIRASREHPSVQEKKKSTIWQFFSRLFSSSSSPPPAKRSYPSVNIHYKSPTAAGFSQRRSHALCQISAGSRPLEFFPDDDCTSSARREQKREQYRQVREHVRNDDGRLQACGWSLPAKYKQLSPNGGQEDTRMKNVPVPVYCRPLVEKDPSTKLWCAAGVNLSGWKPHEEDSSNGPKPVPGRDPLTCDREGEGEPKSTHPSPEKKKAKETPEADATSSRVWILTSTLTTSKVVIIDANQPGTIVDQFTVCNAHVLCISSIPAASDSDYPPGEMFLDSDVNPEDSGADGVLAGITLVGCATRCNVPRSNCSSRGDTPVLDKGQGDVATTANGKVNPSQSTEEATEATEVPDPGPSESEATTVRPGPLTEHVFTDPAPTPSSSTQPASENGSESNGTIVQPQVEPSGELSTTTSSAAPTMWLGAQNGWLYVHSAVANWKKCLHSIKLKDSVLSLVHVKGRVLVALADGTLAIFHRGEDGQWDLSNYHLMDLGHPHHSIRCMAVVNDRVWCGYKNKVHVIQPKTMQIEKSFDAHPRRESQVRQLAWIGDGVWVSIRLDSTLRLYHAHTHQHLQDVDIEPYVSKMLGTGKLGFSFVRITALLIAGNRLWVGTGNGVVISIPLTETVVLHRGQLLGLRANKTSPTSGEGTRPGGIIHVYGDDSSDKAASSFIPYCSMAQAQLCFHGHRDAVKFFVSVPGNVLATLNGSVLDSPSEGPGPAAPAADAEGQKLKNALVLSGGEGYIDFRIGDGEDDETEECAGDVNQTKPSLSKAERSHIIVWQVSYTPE
Kind of assay: pull-down; lysates of HEK293T cells expressing a TAP-tagged JIP1 or JIP3 construct with V5-KLC, V5-KHC and a GFP-tagged partner (GFP-JIP3, GFP-JIP1, GFP-DLK or GFP-APP-C constructs), precipitated with streptavidin sepharose, western blot. On the technique in general: In western blotting, separated proteins are transferred to a membrane and probed.

Assay [1] addresses T2, JIP1 (endogenous, E17 mouse brain) (mouse (endogenous in E17 brain)) (UniProt Q9WVI9).
T2 sequence: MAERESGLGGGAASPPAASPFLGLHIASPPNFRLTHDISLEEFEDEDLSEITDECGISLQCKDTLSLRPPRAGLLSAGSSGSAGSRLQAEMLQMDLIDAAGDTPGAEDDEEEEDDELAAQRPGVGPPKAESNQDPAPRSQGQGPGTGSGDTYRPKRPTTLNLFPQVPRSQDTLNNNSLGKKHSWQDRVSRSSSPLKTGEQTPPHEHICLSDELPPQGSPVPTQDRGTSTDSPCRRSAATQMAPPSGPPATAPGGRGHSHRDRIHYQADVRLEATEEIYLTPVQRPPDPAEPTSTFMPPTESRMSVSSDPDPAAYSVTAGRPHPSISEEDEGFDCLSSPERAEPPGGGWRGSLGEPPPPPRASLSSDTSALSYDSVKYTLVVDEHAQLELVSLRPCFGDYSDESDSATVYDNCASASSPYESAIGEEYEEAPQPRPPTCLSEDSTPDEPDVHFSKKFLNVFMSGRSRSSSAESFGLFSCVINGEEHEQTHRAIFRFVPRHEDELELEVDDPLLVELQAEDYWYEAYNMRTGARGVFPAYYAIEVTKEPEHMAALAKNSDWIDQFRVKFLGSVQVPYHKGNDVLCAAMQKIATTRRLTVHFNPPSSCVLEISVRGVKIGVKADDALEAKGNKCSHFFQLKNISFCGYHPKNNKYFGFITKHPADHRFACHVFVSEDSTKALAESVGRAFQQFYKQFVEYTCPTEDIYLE
Kind of assay: co-IP; E17 mouse brain extract immunoprecipitated with 8 ug anti-JIP1 antibody (normal rabbit IgG as control) for 4 hours, Protein A Sepharose, western blot.

No constants are given. Whether binding was seen depends on the method and setting. In cells and extracts the contact can be indirect. Some binding calls cover weakened binding; strength is not graded here. For some assays here: Tags and fused reporters may be left off the sequences shown.

B1: GFP-JIP1-dCT (in HEK293T) (domain or fragment, UniProt Q9WVI9 1-703)
chain: MAERESGLGGGAASPPAASPFLGLHIASPPNFRLTHDISLEEFEDEDLSEITDECGISLQCKDTLSLRPPRAGLLSAGSSGSAGSRLQAEMLQMDLIDAAGDTPGAEDDEEEEDDELAAQRPGVGPPKAESNQDPAPRSQGQGPGTGSGDTYRPKRPTTLNLFPQVPRSQDTLNNNSLGKKHSWQDRVSRSSSPLKTGEQTPPHEHICLSDELPPQGSPVPTQDRGTSTDSPCRRSAATQMAPPSGPPATAPGGRGHSHRDRIHYQADVRLEATEEIYLTPVQRPPDPAEPTSTFMPPTESRMSVSSDPDPAAYSVTAGRPHPSISEEDEGFDCLSSPERAEPPGGGWRGSLGEPPPPPRASLSSDTSALSYDSVKYTLVVDEHAQLELVSLRPCFGDYSDESDSATVYDNCASASSPYESAIGEEYEEAPQPRPPTCLSEDSTPDEPDVHFSKKFLNVFMSGRSRSSSAESFGLFSCVINGEEHEQTHRAIFRFVPRHEDELELEVDDPLLVELQAEDYWYEAYNMRTGARGVFPAYYAIEVTKEPEHMAALAKNSDWIDQFRVKFLGSVQVPYHKGNDVLCAAMQKIATTRRLTVHFNPPSSCVLEISVRGVKIGVKADDALEAKGNKCSHFFQLKNISFCGYHPKNNKYFGFITKHPADHRFACHVFVSEDSTKALAESVGRAFQQFYKQFVEYTCPTED
On to B1, for which, in the assay with TAP-JIP3-LZ4A (mouse), the binding entry is on record as “binds”.

B2: JIP3 (endogenous, E17 mouse brain) (protein, UniProt Q9ESN9 1-1337)
chain: MMEIQMDEGGGVVVYQDDYCSGSVMSERVSGLAGSIYREFERLIHCYDEEVVKELMPLVVNVLENLDSVLSENQEHEVELELLREDNEQLLTQYEREKALRKQAEEKFIEFEDALEQEKKELQIQVEHYEFQTRQLELKAKNYADQISRLEERESEMKKEYNALHQRHTEMIQTYVEHIERSKMQQVGGSGQTESSLPGRSRKERPTSLNVFPLADGMVRAQMGGKLVPAGDHWHLSDLGQLQSSSSYQCPNDEMSESGQSSAAATPSTTGTKSNTPTSSVPSAAVTPLNESLQPLGDYVSVTKNNKQAREKRNSRNMEVQVTQEMRNVSIGMGSSDEWSDVQDIIDSTPELDVCPETRLERTGSSPTQGIVNKAFGINTDSLYHELSTAGSEVIGDVDEGADLLGEFSVRDDFFGMGKEVGNLLLENSQLLETKNALNVVKNDLIAKVDQLSGEQEVLKGELEAAKQAKVKLENRIKELEEELKRVKSEAVTARREPREEVEDVSSYLCTELDKIPMAQRRRFTRVEMARVLMERNQYKERLMELQEAVRWTEMIRASREHPSVQEKKKSTIWQFFSRLFSSSSSPPPAKRSYPSVNIHYKSPTAAGFSQRRSHALCQISAGSRPLEFFPDDDCTSSARREQKREQYRQVREHVRNDDGRLQACGWSLPAKYKQLSPNGGQEDTRMKNVPVPVYCRPLVEKDPSTKLWCAAGVNLSGWKPHEEDSSNGPKPVPGRDPLTCDREGEGEPKSTHPSPEKKKAKETPEADATSSRVWILTSTLTTSKVVIIDANQPGTIVDQFTVCNAHVLCISSIPAASDSDYPPGEMFLDSDVNPEDSGADGVLAGITLVGCATRCNVPRSNCSSRGDTPVLDKGQGDVATTANGKVNPSQSTEEATEATEVPDPGPSESEATTVRPGPLTEHVFTDPAPTPSSSTQPASENGSESNGTIVQPQVEPSGELSTTTSSAAPTMWLGAQNGWLYVHSAVANWKKCLHSIKLKDSVLSLVHVKGRVLVALADGTLAIFHRGEDGQWDLSNYHLMDLGHPHHSIRCMAVVNDRVWCGYKNKVHVIQPKTMQIEKSFDAHPRRESQVRQLAWIGDGVWVSIRLDSTLRLYHAHTHQHLQDVDIEPYVSKMLGTGKLGFSFVRITALLIAGNRLWVGTGNGVVISIPLTETVVLHRGQLLGLRANKTSPTSGEGTRPGGIIHVYGDDSSDKAASSFIPYCSMAQAQLCFHGHRDAVKFFVSVPGNVLATLNGSVLDSPSEGPGPAAPAADAEGQKLKNALVLSGGEGYIDFRIGDGEDDETEECAGDVNQTKPSLSKAERSHIIVWQVSYTPE
Consider B2, for which the binding result in assay [1] is reported as “binds”.
